Results from publication PMC12136788.
The other results are listed elsewhere or left out.

B1: chr12:104760787:104760888:+|3pUTR|ENSG00000171310|unk|total|mutant (ssRNA)
RNA: GGGAGUUCUACAGUCCGACGAUCUUCUUUUCUAAUGGCAUUGAAACUUUAAAAAAAAUGGAUUCAACUGUUUUUGCAGAAUGCCGAAAGUAUUCUGUGUCCUUGGUUAAAGAAAUCCACUUGUGAAGUGUGCCUGGAAAAUGACAACAGAGGAUUGAGCAUCA
B2: chr4:75812186:75812332:+|CDS|ENSG00000138768|unk|total|mutant (ssRNA)
RNA: GGGAGUUCUACAGUCCGACGAUCAGAGCAGCUGGAUUCAUCUAACCGUACCAUUGCCAUUUUACAAACUGAGAAAGACAAACCCGAGUUGGAAAUUACAGAUUCUAAAAAAGAACAAGAUGAUCUCUUGGUGCUCUUGGCCGACAACAGAGGAUUGAGCAUCA
B3: chr6:42978268:42979150:-|CDS|ENSG00000124587|control|control|control (ssRNA)
RNA: GGGAGUUCUACAGUCCGACGAUCACUUCACAGCCGCACUUGGCUAGGGUGCAGGUCCUAGAACCUCGCUGGGACCUCUCUGAUAGACUGGGACCCGGCUCUGGACCGCUGGGAGAGCCCCUCGCUGACGGACUGGCGCUUGUCCAACAGAGGAUUGAGCAUCA
B4: ENSG00000070961:be:win_601|CDS|ENSG00000070961|bound_else_gene|NA|bound_elsewhere_windowed (ssRNA)
RNA: GGGAGUUCUACAGUCCGACGAUCCAGGUCAUUCAGAUACCUGUAGCUGACAUUACUGUUGGAGAUAUUGCUCAAGUGAAAUAUGGUGAUCUUCUUCCAGCUGACGGCAUACUUAUUCAAGGCAACGAUCUUAAAAUUGAUGAACAACAGAGGAUUGAGCAUCA
B5: ENSG00000198589:be:win_9401|3pUTR|ENSG00000198589|bound_else_gene|NA|bound_elsewhere_windowed (ssRNA)
RNA: GGGAGUUCUACAGUCCGACGAUCUAGAGGCUACCGGGUGCUGUAUUCAGCAACACCUGUUUUACUAUUUGUUAUUAAACUAUCAUCUCCACCUUCCUUUUGAUUAGCAAUUUGUACUAAGAAACGAAACAAUGUUAUUUGGUGCAACAGAGGAUUGAGCAUCA
B6: chr17:41691520:41691533:+|3pUTR|ENSG00000173812|msi1_unk|FALSE|overlapping (ssRNA)
RNA: GGGAGUUCUACAGUCCGACGAUCGGAACAAAUCUCAAACUGAUCCAUCAGUCAUGUAGCUAGCUGUAGAGCUUGCAACUUAAUAGCAGCAGCUGCCCAAUGCCAUGUGAAGUAACAAACUGGUUUUUGGUUUUUUUUUCCCCUCAACAGAGGAUUGAGCAUCA
B7: chr20:7982266:7982367:-|CDS|ENSG00000125827|msi1|total|mutant (ssRNA)
RNA: GGGAGUUCUACAGUCCGACGAUCGAGAAGUGAGGCCAAUGAUCAGGGGCCCCCAGGAGAGGACGGUGUGACCCGGGAGGAAGCCGAGCCUGAGGAGGCUGAAGAAGGCAUCUCUGAGCAACCCUGCCCAGCUGACACAGAGGUCAACAGAGGAUUGAGCAUCA
B8: chr5:37007335:37007444:+|CDS|ENSG00000164190|unk|FALSE|unique (ssRNA)
RNA: GGGAGUUCUACAGUCCGACGAUCAGGCUUAUUAAGUUCAAAAGCAAAACGGGCUAAAUGUUCUACCCAUAAGCAGAGAGUAAUAGUAAUGCUUUAUAACAAAGUUUGUGACAUUGUUAGCAGCUUAUCAGAAUUGCUAGAGAUCAACAGAGGAUUGAGCAUCA
B9: chr17:21001410:21001511:-|3pUTR|ENSG00000124422|msi1_unk|FALSE|overlapping (ssRNA)
RNA: GGGAGUUCUACAGUCCGACGAUCUAGUACAACUUUUAGACACAGAAAUCUGAAUGACAUAUAUUGUUCUGUGUCAAGAAACUUAGAUUUUUUUUUUAACUAUUUAAAAACGUGAAACCUAUUCUUAGCUCACAGGCCAUGGAGCAACAGAGGAUUGAGCAUCA
B10: chr22:41177882:41177989:+|CDS|ENSG00000100393|unk|FALSE|unique (ssRNA)
RNA: GGGAGUUCUACAGUCCGACGAUCCAAAACCUUUUGCGGACUCUCAGGUCUCCCAGCUCUCCCCUGCAGCAGCAACAGGUGCUUAGUAUCCUUCACGCCAACCCCCAGCUGUUGGCUGCAUUCAUCAAGCAGCGGGCUGCCAAGCAACAGAGGAUUGAGCAUCA
B11: ENSG00000136451:be:win_3351|3pUTR|ENSG00000136451|bound_else_gene|NA|bound_elsewhere_windowed (ssRNA)
RNA: GGGAGUUCUACAGUCCGACGAUCGAAGGCAACACAUUCCUACACUUUUAAUGUAUAUGUUUGUUAUAAUGUCCAUGUAAACAUGCCCUAUGUUUGUGCCUUUUAAUUAGUUUGUCUCAAUAAACAAAAUGUAGAGAAAAAUAUCAACAGAGGAUUGAGCAUCA
B12: ENSG00000124766:be:win_3501|3pUTR|ENSG00000124766|bound_else_gene|NA|bound_elsewhere_windowed (ssRNA)
RNA: GGGAGUUCUACAGUCCGACGAUCAACUUGUAAACCACAUCUUUUUUGCACUUUUUUUAUAAGCAAAAACGUGCCGUUUAAACCACUGGAUCUAUCUAAAUGCCGAUUUGAGUUCGCGACACUAUGUACUGCGUUUUUCAUUCUCAACAGAGGAUUGAGCAUCA
B13: chr11:35229396:35229958:+|3pUTR|ENSG00000026508|msi1|total|mutant (ssRNA)
RNA: GGGAGUUCUACAGUCCGACGAUCAUAUGUAUUCCUGAUCGCCAACCUUUCCCCCACCAGCUAAGGACAUUUCCCAGGGUUAACCGGGCCUGGUCCCUGGGAGGAAAUUUGAAUGGGUCCAUUUUGCCCUUCCACCGCCUAAUCCAACAGAGGAUUGAGCAUCA
B14: chr18:3457781:3457936:+|CDS|ENSG00000177426|unk|total|mutant (ssRNA)
RNA: GGGAGUUCUACAGUCCGACGAUCCAACACUCCUCCCCCUACUCCACCGGACCUCAACCAGGACUUCAGUGGAUUUCAGCUUCCCGUGGAUGUUGCACUCAAACGGGCUGCAGAGAUGGAGCUUCAGGCAAAACUUACAGCUUACAACAGAGGAUUGAGCAUCA

molecular target: MSI1 full-length (mouse, UniProt Q61474 1-362); test: nsRBNS (natural sequence RNA bind-n-seq); RBNS binding buffer (assumed for nsRBNS): 25 mM Tris pH 7.5, 150 mM KCl, 3 mM MgCl2, 0.01% Triton X-100, 500 ug/ml BSA, 20 U/ml SUPERase-In, 4 C; UNK is unkempt and MSI1 is Musashi-1; names of the RNAs are library labels; protein concentration not given here; high values mean tight binding
Sequence of UniProt Q61474 (Q61474 whole entry): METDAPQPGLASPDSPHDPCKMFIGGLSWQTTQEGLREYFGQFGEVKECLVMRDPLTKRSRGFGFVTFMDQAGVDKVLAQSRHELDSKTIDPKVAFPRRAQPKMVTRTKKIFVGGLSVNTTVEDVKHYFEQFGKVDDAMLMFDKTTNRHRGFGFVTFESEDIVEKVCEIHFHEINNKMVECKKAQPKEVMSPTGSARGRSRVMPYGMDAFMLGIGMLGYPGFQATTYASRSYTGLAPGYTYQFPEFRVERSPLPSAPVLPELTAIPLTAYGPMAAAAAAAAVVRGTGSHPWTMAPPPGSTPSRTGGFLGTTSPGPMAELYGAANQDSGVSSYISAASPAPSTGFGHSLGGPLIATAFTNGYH

**Q.** How did the binding signal turn out when B1 was run?
**A.** 0.231 enrichment R

**Q.** Which binding signal does the source give for B2 here?
**A.** 0.367 enrichment R

**Q.** B3 was tested. Which binding signal did it give?
**A.** 0.398 enrichment R

**Q.** Which binding signal does the source give for B4 here?
**A.** 0.234 enrichment R

**Q.** Which binding signal does the source give for B5 here?
**A.** 2.21 enrichment R

**Q.** B6 was tested. Which binding signal did it give?
**A.** 1.04 enrichment R

**Q.** Which binding signal does the source give for B7 here?
**A.** 0.51 enrichment R

**Q.** B8 was tested. Which binding signal did it give?
**A.** 2.66 enrichment R

**Q.** Which binding signal does the source give for B9 here?
**A.** 4.13 enrichment R

**Q.** Which binding signal does the source give for B10 here?
**A.** 0.639 enrichment R

**Q.** B11 was tested. Which binding signal did it give?
**A.** 4.72 enrichment R

**Q.** Which binding signal does the source give for B12 here?
**A.** 0.411 enrichment R

**Q.** Which binding signal does the source give for B13 here?
**A.** 0.401 enrichment R

**Q.** For B14, which binding signal is on record?
**A.** 0.52 enrichment R
